Results as given in publication PMC10726135.
The list shows a part of the results. At the low end of the ranking the order means little. Measured with an extract: partners may take part in the binding.

The sequences below were run against T1, HNF4alpha8 (COS-7 nuclear extract) (UniProt P41235-5) (assay: protein-binding microarray). Settings: COS-7 nuclear extract on double-stranded Agilent 4x180k PBM; binding buffer, salt, pH and temperature not given; high values mean tight binding; double strand, one strand shown; sequences stand for … in …GCCTAGGGAGATTAGAGTATCGGTCGA.
T1 sequence: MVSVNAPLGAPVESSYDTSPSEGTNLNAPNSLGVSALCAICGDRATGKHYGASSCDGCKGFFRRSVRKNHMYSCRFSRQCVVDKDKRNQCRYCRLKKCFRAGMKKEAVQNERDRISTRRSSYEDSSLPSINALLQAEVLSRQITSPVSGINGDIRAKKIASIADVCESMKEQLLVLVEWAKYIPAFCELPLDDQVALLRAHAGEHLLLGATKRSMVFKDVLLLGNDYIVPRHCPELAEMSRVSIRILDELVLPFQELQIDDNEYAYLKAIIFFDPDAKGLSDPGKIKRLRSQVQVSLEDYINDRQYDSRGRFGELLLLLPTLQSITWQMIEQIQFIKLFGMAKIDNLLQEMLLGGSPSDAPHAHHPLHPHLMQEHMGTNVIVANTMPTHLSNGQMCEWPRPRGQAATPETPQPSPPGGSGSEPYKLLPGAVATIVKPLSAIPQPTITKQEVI

Row | Sequence | binding signal (log2 normalized intensity)
1 | TCTTGGCTTCTCTTGGACCTCAATGTGCTC | 2.43
2 | TGTAGCTAAAATGTTAATGATTACTAGAGA | -1.28
3 | TTCAGAGGCAGGGACTGAGGAATCTGGCTG | -1.3
4 | CGCCGAGCAGGCACCCCGGGAGCGCCGAGC | -1.33
5 | AGAAAGAAGAGACAGCTGGGCCCTGCCTGA | -1.4
6 | GGCATTCTTAACAAAACCTGTTTAGGATTA | -0.902
7 | ACCAGAGGCTGAAGTGAAGTTACAAAGGTC | 6.12
8 | GGGCGAGAGAGTTCTATGGGATGACCTTTG | 6.82
9 | ACGTTTCTGTGGTCAGGGCCTTTCCAGCAA | -0.895
10 | AAACAGATGTTGGTGGGAGGATTTCTTCAT | -1.13
11 | CACTACTCCAGGGAGAAACCTGCCAGGTGG | -1.34
12 | CCTCAGCCGGGAGAGGAGGCCCCCTGAGGC | 2.29
13 | CGGTTTTAGGACAACATGAGTAAACGAGCT | -0.78
14 | AAAAAGCTCTGCCTACGCATGCATTCCAGT | -1.4
15 | AGATGATGAGGCGGTTCATCCAACAGGTGA | -1.19
16 | TTCACTTCCCTATCCCGCTGCTTCCACCAG | -1.23
17 | GTTTCTCAAGTGATCGAAGGTCAACTTATC | 4.63
18 | GGTTAATGATTATGCCTCTGTGACCTATAA | 3.19
19 | CAAAGTCCCCTGAGCTTGAGTCCATCCCAT | 2.7
20 | AACTCAGGGTCTGGTTCCAAAGTCTGCAGA | 3.57
21 | TGGGGATCAAAGCGTATGGGAGGGCTATTT | -0.88
22 | ACTCCTACAATTGCTGGTCCCTTTCAAAAC | 0.174
23 | CCTCCTGCTGCAGCTCTGGGCCCCTCGGCC | -1.31
24 | AGCGCTTATCTGGAAACTATTCCTTTGTTT | -0.774

Row | Sequence | binding signal (log2 normalized intensity)
25 | TAATAACACTCCCATCTGCCATCAGTATCC | -1.29
26 | GAACCTCCCTCCCCATCTCCCCAGACACTC | 5.39
27 | GCAAACAGAGATAGTTTGACTTTCTCTCTT | -0.618
28 | CCTCTGTCTCTCAGGCACAGCTCGACCTTT | 6.7
29 | GGGGGAAGTGTGGTCAAGGGTCAGTTTCTG | 4.48
30 | GCCCTTTGTCCTATGACTCTCTCAACACTG | 3.47
31 | TGGACTCCTGTTTGAACAAACCAGCTTTGA | -0.681
32 | AGAAGTTGGACTTTGTACATTCCAAATACG | 7.64
33 | TGAAGACCTGTACAGGGACTGTGTCAACAA | 0.00948
34 | CGAGTTCCCTCGATTATTTCAGCCAGGGCT | -1.37
35 | CGCCCTCAGTGTTTTCACTGCTGGGTTTCT | 0.788
36 | TTATGGCTGGTTTGGTCTTTTATCTAGACC | 1.81
37 | CTTTAGGAGAAGGAAAAAAATAGGAGACTG | -1.24
38 | CGGGCGGTCGGAGTCCACGTCCTCCCCCAG | 3.55
39 | ACTCGTGGCATTTTTGCCCCTGCCCTAGAG | 2.74
40 | ATATCAGGTATTGCCCAGTATTGATGTGAG | 0.686
41 | CTCTAGGGTAGATAAGGATGGATCAAAGGA | -0.174
42 | CAGTCTCTTGAAATCCCAAGCAGTGATATT | 0.149
43 | AAAAGGATGCTAGGTTTGTGAGTCCAAAGG | 5.08
44 | GGCTAGACTTTAACCCCCTTGTCTTCCTCA | 4.16
45 | ACTATTATTAGAGTCCCTTTTTTAGACAAG | -0.146
46 | GACCCTTGGCCTCTACAGCTACTCCAGCTG | 4.23
47 | TAAGGATGCGGACTCCTCCCTCAGCCTGAA | -1.25
48 | CAGCCAGAGGCCTTATCTGGCCGCCTAATC | -1.29

Row | Sequence | binding signal (log2 normalized intensity)
49 | AGATTTGCAGCTCAAAGTGCTTTTCAATCT | -1.44
50 | GAGTAAAGGTCACTCTTGCTATGCAAACAG | 3.2
51 | GCCGCGCGGCTTCAGAGGCCAGCAGTGCTT | -1.28
52 | CTTTCCGTACTTTTCATCTGATCAGTGCCC | 2.53
53 | CCAGCGAGGTTATTTCACCCCAGCAAACAG | 1.22
54 | TCAGAGGCTCACAGAGAGGCTTCTGGCCAG | -1.24
55 | TCATTGCAATTACTCAATAACCACATGAAT | -1.32
56 | AGCGGGGTTTGAATCCCGGGAATCCTCAGC | -1.32
57 | GCACCGTGTGCTTTGTAGCACTTTGGACCT | 7.16
58 | GACTTTCAACAGAGGGCCTCTAGCCCAATA | -1.33
59 | CCCTCGGGCCGGGAAACGCCCTCGGCGCGC | 1.34
60 | CCTTGACACATCTGATTAGAGGCTCAGGTA | -1.24
61 | ATTGGCTTGGCTGTGTCCCTTGACCAAAGG | 2.62
62 | AATACCTGCCGCGCGGGGCGCCTCCCGGAG | -1.22
63 | CAAATGACAGAAGCAGGACTTAAACACCAG | -1.25
64 | TGGGAGACATTCCTTCAGCGTGAACTTTGA | 7.24
65 | GGCTTGGCAGTCTGGTGCCAAGGAGCCTCT | -1.18
66 | TTATCTCCCCAGCTTACAATTCCAATGAGA | 0.718
67 | GCCACACTGGTTCCTGCACCCGGGCAGCCT | -1.08
68 | AAGACATTCCAAGAAGAGCCAATAGTACAC | -0.652
69 | ATTACATAGGAGGCTGCCTCTCTGTGCTGG | -1.34
70 | TATGGCCGGCCCCTGGAATGCTGAGGGGGG | -1.39
71 | GAAAATGTCGTTTTCCCGGTTTGTTCCATG | 1.94
72 | GGTTTTACCCTGGGAATGGAGAGAGAGAGA | -1.45
